Experimental findings from PubChem BioAssay AID1963576 (National Center for Advancing Translational Sciences (NCATS), 2024) are described below.

Among all 46,000 compounds or so, about 60 (0.1%) were called active. Inconclusive results (about 3%) are left out. The call rests on the fitted dose curve; in most records, active means well fitted inhibition curve with a large enough effect; inconclusive means small, poorly fitted or top-dose-only effect; inactive means no such curve, though single readings can be large or run the other way. This is one part of the list.

This assay is described as follows: Primary qHTS assay for Inhibitors of ovarian cancer metastasis using an organotypic tumor microenvironment (TME) model. Further: nearly all actives have a fitted effect of over 65% in size.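 On activity change, negative = inhibition: plate controls were DMSO wells for no effect and tomatine positive control wells for full effect.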 Particulars: SKOV3ip1-GFP adhesion/invasion on 3D omental model, fluorescence; series mostly up to 45.8 µM; activity change, negative = inhibition: at the top concentration. Summed up:
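Adhesion/invasion was scored as fixed GFP-labeled SKOV3ip1 cell counts (488/509 nm), normalized to DMSO and tomatine controls. Cancer cells in serum-free medium, with four compound doses (0.36-46 umol/L), sat 2 hr at RT then 16 hr at 37 C on a 48 hr fibroblast/mesothelial/ECM culture.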
(qHTS replaces the single test concentration by a dilution series.)
For the compound `Cc1cccc2c1-c1sc(C(=O)NCc3ccccc3Cl)cc1CO2`, the “activity change, negative = inhibition” value is inactive: -27.9%.
The same measure, in the same setting: the figure for `CCCN1CCN(CCCNC(=O)Cn2nc(C)n3c(cc4cc(F)ccc43)c2=O)CC1` is inactive: -15.1%; for `COc1cc(NC(=O)c2ccc(C(=O)Nc3cc(OC)c(Cl)cc3OC)cc2)c(OC)cc1Cl` it is inactive: 0.469%; for `O=c1ccc2cc(S(=O)(=O)N3CCCC3)ccc2[nH]1` it is inactive: 5.14%.
The same measure, in the same setting: the figure for `CSc1cccc(NC(=O)CN(C)S(=O)(=O)c2ccc3c(c2)n(C)c(=O)c(=O)n3C)c1` is inactive: 6%.
For the compound `Cc1nn2c(=O)cc(COC(=O)c3ccc(C(C)(C)C)cc3)nc2s1`, the outcome was inactive.
Regarding `COc1ccccc1CNC(=O)c1c2c(nc3ccccc13)C(=O)N(C1CCCCC1)C2`, the “activity change, negative = inhibition” value was inactive: 13.3%.
The same measure, in the same setting: with `CCOC(=O)C1CCCN(CCC(=O)Nc2ccc(OC)cc2OC)C1` (configuration not stated) the figure was inactive: 2.93%.
For the compound `COc1cccc(N2CCN(S(=O)(=O)c3ccc(-c4cnc(C5CC5)o4)cc3)CC2)c1`, the call was inactive.
`Cc1ccc(-c2nnc(Nc3ccc(C(N)=O)cc3)c3ccccc23)cc1S(=O)(=O)N1CCCCC1`: the “activity change, negative = inhibition” value is inactive: 25.8%.
As to `COc1ccc(CCNC(=O)c2ccc(CS(=O)(=O)c3ccc(C)cc3)o2)cc1OC`, the result was inactive.
As for `O=C(Nc1c(C(=O)N2CCN(c3ccc(F)cc3)CC2)oc2ccccc12)c1ccco1`, the result was inactive.
For `COc1ccc(NC(=O)c2c(C)oc3ccc(O)c(CN4CCN(C)CC4)c23)cc1Cl`, the “activity change, negative = inhibition” value is inactive: -0.372%.
`CCc1ccc(NC(=O)CSC2=Nc3ccccc3C3=NC(CCC(=O)NCc4cccs4)C(=O)N23)cc1` (configuration not stated): the outcome was inactive.
On the same count and under the same terms, with `CCn1cc(C(=O)NCCc2ccccc2)c(=O)c2cc(S(=O)(=O)N3CCOCC3)ccc21` the entry was “inactive”.
For the compound `COc1ccc(CNC(=O)CCc2c(C)nc3c(c2C)c(=O)n(C)c(=O)n3C)cc1`, the “activity change, negative = inhibition” value was inactive: 8.3%.
For `Cc1cccc(-n2ccnc2SCC(=O)Nc2ccccc2C(F)(F)F)c1`, the call was inactive.
On to `O=C(CSc1nc2ccccc2n1Cc1ccc(F)c(Cl)c1)N1CCN(c2ccc(F)cc2)CC1`, for which the “activity change, negative = inhibition” value was inactive: -18.1%.
Regarding `CCc1ccccc1NC(=O)CC(c1ccc(F)cc1)N1Cc2ccccc2C1=O` (configuration not stated), the “activity change, negative = inhibition” value was inactive: -7.21%.
Same read-out and setting: with `CCOC(=O)c1cc2c(=O)n3ccccc3nc2n(Cc2ccco2)c1=NC(=O)c1cc(C)cc(C)c1` the figure was inactive: 3.45%; with `COC(=O)c1ccc(NC(=O)c2nn(C)c3c2CS(=O)(=O)c2ccccc2-3)cc1`, inactive: -6.29%.
Take `COc1cccc(N2C(=O)CSC23C(=O)N(CC(=O)Nc2cc(C)ccc2C)c2ccccc23)c1` (configuration not stated): the compound was classed as inactive.
For the compound `COc1ccc(OC)c(CCNC(=O)CCCc2nnc3n(C)c(=O)c4sccc4n23)c1`, the “activity change, negative = inhibition” value is inactive: 9.39%.
The same measure, in the same setting: the figure for `Cc1ccc(Cn2c(C)c(CNC3CCCCC3)c(C(=O)O)c2C)cc1` is inactive: 1.18%.
The same measure, in the same setting: the figure for `CCC(=O)N1CCc2cc(S(=O)(=O)NC(C(=O)NCc3ccc(OC)cc3)C(C)C)ccc21` (configuration not stated) is inactive: -18.6%.
Turning to `COc1cc(CN2CCc3nc(Nc4ccc5c(c4)OCCO5)ncc3C2)cc(OC)c1OC`, the compound was called inactive.
For `COc1ccc(C)cc1NC(=O)CN1CCN(CC(=O)Nc2ccccc2F)CC1`, the “activity change, negative = inhibition” value was inactive: -24.1%.
On to `Cc1cc(C)c(NC(=O)c2sc3nc(C)cc(C)c3c2N)c(C)c1`, for which the “activity change, negative = inhibition” value was inactive: -0.728%.
With `Cc1ccc2sc(N3CCN(C(=O)C4COc5ccccc5O4)CC3)nc2c1C` (configuration not stated), the outcome was inactive.
On the same count and under the same terms, the entry for `Cc1ccc(Cl)cc1NC(=O)c1oc2ccc(S(=O)(=O)N3CCC4(CC3)OCCO4)cc2c1C` is “inactive”.
Regarding `COc1ccc2[nH]cc(CCNC(=O)Nc3ccccc3C)c2c1`, the “activity change, negative = inhibition” value was inactive: 8.3%.
As to `CC1CCN(S(=O)(=O)c2ccc3nc(-c4cccnc4)cc(C(=O)NCCCOC(C)C)c3c2)CC1`, the call was inactive.
On the same count and under the same terms, the entry for `COc1ccc(-c2cc(-c3ccccc3)nc3c2COc2ccc(Cl)cc2-3)cc1` is “inactive”.
`O=C(NCCc1ccc(F)cc1)C(=O)NCC(c1cccs1)S(=O)(=O)c1cccs1` (configuration not stated): the “activity change, negative = inhibition” value was inactive: -0.314%.
For `COc1ccc(NC(=O)Nc2cn(CC(C)C)c(=O)c3ccccc23)c(OC)c1`, the call was inactive.
As for `CC(=O)N1CCCc2cc(S(=O)(=O)N3CCC(C(=O)NC4CCCCC4)CC3)ccc21`, the “activity change, negative = inhibition” value was inactive: 4.78%.
For the compound `CCOC(=O)N1CCC(NC(=O)c2cnn(-c3cccc(C)c3)c2-n2cccc2)CC1`, the outcome was inactive.
The same measure, in the same setting: the entry for `COC(=O)c1ccc(NS(=O)(=O)c2ccc3[nH]c4c(c3c2)CCCCC4)cc1` is “inactive”.
As for `CC(C)(C)OC(=O)N1CCC(c2c(C(=O)N3CCN(C4CCCCC4)CC3)cnn2-c2cccc(Cl)c2)CC1`, the “activity change, negative = inhibition” value is inactive: -1.45%.
The same measure, in the same setting: the figure for `COc1ccc(NC(=O)CSC2=Nc3ccccc3C3=NC(CCC(=O)NCCc4ccccc4)C(=O)N23)cc1` (configuration not stated) is inactive: -14.6%; for `CCN1C(=O)C(O)(c2c(C)[nH]c3ccccc23)c2ccccc21` (configuration not stated) it is inactive: -12.5%.
The same measure, in the same setting: with `Cc1oc2ncn(C)c(=O)c2c1C(=O)N(C)c1ccccc1F` the figure was inactive: 0.523%.
On the same count and under the same terms, the figure for `Cc1ccc(C)c(S(=O)(=O)NCC(c2ccc(N(C)C)cc2)N2CCOCC2)c1` (configuration not stated) is inactive: -11.4%; for `O=C(NCc1ccccc1Cl)C1CCCN(c2nc3ccccc3n3cccc23)C1` (configuration not stated) it is inactive: -5.61%; for `Cc1oc2ncn(CC(C)C)c(=O)c2c1C(=O)Nc1ccc(Cl)cn1` it is inactive: 1.4%.
In the case of `Cc1ccc(C)c(NC(=O)C(C)N(c2ccccc2)S(C)(=O)=O)c1` (configuration not stated), the “activity change, negative = inhibition” value is inactive: 4.95%.
On the same count and under the same terms, the figure for `Cc1cccc(-n2cc(-c3ccccc3)nc2SCC(=O)Nc2ccccc2Cl)c1` is inactive: -1.58%.
